Reference: the supplement of paper PMC10126150
Values marked as one replicate rest on one cluster of the flow cell; about a third of the high ones do not repeat.

Test system: ATP
Experiment: switch fluorescence ratio, 500 uM ATP over buffer (Cy3 cluster intensity, sum of 5 cycles each) (fold (ratio)); higher = stronger signal-on switching upon ATP binding; sequences stand for … in TCGTCGGCAGCGTCAGATGTGTATAAGAGACAGTTTTTTTTTTTTTTTTTTTTTTTTT…TC
Details: aptamer strand: ATP DNA aptamer (quencher-CACCTGGGGGAGTATTGCGGAGGAAGG + anchor), 100 nM annealed; ATP concentration: 500 uM; one replicate
Summary of the method: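 Clusters carrying Cy3-labelled switching strands on a modified Illumina MiSeq flow-cell were annealed to 100 nM quencher-labelled ATP aptamer and imaged in selection buffer. They were imaged again after 15 min with 500 uM ATP at 22 °C, over five buffer/ATP cycles with NaOH stripping and re-annealing in between. For each cluster, the fluorescence ratio is the summed Cy3 intensity of the target cycles divided by that of the buffer cycles, averaged per switch-domain sequence. Clusters outside 100-1000 RFU were left out.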
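Further: ATP exposure 15 min at 22 °C before imaging.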

| Sequence | switch fluorescence ratio |
| --- | --- |
| GTCACTGGGT | 0.989 |
| TGTTGCGCGA | 1.07 |
| GGGTTCGCCT | 1.02 |
| CGAGGGAAGG | 1.15 |
| GAGGCATATG | 1 |
| CTTATTCACG | 1 |
| ATTAGTATCA | 0.982 |
| TAGTACACCC | 1.04 |
| GGGACTGCCC | 1.01 |
| GTGAAGGTGC | 1.44 |
| GCTCGTCAC | 0.978 |
| ATGCCTCGGC | 0.981 |
| CACCGGGCAA | 1.29 |
| GAAGACTCTG | 1.01 |
| TGGGCTATAA | 1.4 |
| TCTCTCAGAA | 0.99 |
| GCCGCGAGTT | 1.08 |
| AACATCTCTG | 1.05 |
| CCCTCTTCCT | 1.37 |
| TCAAGCGGCC | 1.02 |
| CGGAGCGGTT | 1.39 |
| TGACTGCGCG | 1.05 |
| GCATATTGCA | 1.04 |
| ATTGCGAACG | 1.15 |
| AAATGCCTGG | 1.03 |
| ATTGGCATTC | 1.07 |

| Sequence | switch fluorescence ratio |
| --- | --- |
| GTACTACGTT | 0.988 |
| AGTTGGGCGC | 1.05 |
| TCATTTGAGG | 0.939 |
| GCCGAACGAA | 1.37 |
| GCTTTCGTGT | 0.985 |
| GATGATAATA | 1.02 |
| GAGAAGTTCG | 0.974 |
| AGAGTAGAAA | 0.965 |
| CTTTGGCCGT | 1.01 |
| TGAGGATCAA | 1.01 |
| CCTGGCCAGG | 1.06 |
| CGTGTACGCT | 0.969 |
| GGACGTGTTT | 0.975 |
| GAGATCGTTG | 1.04 |
| AGTCAGGGTA | 0.972 |
| AACAGGTCAT | 0.973 |
| GCGCAGTTTC | 1.31 |
| GGGTGGGAAA | 0.932 |
| AAAAATACTA | 1.03 |
| GCGGCGCGTA | 0.846 |
| TGATCGGGAA | 1.05 |
| CGAACGAAAG | 1.06 |
| AAAATCCGAT | 0.975 |
| GGGCGAATGA | 0.98 |
| GGAGACCTC | 0.972 |
| ACAAGCGGGC | 1.07 |

| Sequence | switch fluorescence ratio |
| --- | --- |
| TTCGTCTGTG | 1 |
| AAGTACATTT | 1.22 |
| AAGTCACAAC | 1.05 |
| GGTAAGGACC | 1 |
| TGGTGGGTGA | 0.964 |
| ACCTGCTCCT | 1.13 |
| CGGGTCGCCG | 1 |
| TTAACGCGCA | 1.06 |
| GAGAGAGTGT | 0.961 |
| CCGGCCTGTG | 1.13 |
| GCCTAAGTGC | 0.958 |
| ACGGACGGGC | 1.39 |
| CGAGGGGAAT | 1.06 |
| CGGGTTTAGG | 1.08 |
| TAAGGCGGCC | 0.972 |
| AGATTAATAT | 0.972 |
| GAGGTAGACA | 1 |
| CGCGACAGAG | 1.01 |
| TCGCTGGTCG | 1.01 |
| TTCCTGGTTG | 0.992 |
| ATGCGAGTAC | 1.02 |
| ACGACAGCCC | 1.34 |
| TCGGGACAAG | 1.02 |
| TCACCCAGAC | 1.43 |
| TTTTCCAGAA | 1.02 |
| GAAATTGAGC | 1.02 |

| Sequence | switch fluorescence ratio |
| --- | --- |
| CCACCCCCGT | 1.65 |
| ACTTAAAGGG | 1.02 |
| ACAAACGG | 1.39 |
| TTCATTCTAC | 0.973 |
| AAAGTGGAT | 1.01 |
| AGTAGGCCA | 0.961 |
| GCCTCGATCA | 1.04 |
| TGCTTCGGA | 1.01 |
| GATGACTAGA | 1.02 |
| TGGGGGTCAA | 1.04 |
| GGCTAACCCC | 1.07 |
| TGAGAGC | 1.03 |
| TTATCGACTT | 1.06 |
| ATCCATGTTT | 0.991 |
| AGAAGGGT | 0.975 |
| AAATTCAGAA | 0.982 |
| TTATTTATA | 0.957 |
| ATCAGTATT | 1.01 |
| CGGACTTATA | 1.05 |
| ACGCGATTAA | 1.16 |
| CCTTACAGAT | 1.06 |
| GAGCAGTTT | 0.935 |
| ACAATTTATG | 0.986 |
